Test results from the supplement of paper PMC12217912.
The list shows a part of the results. Sequences were assembled here from the parent chain. Values near 0.05 are background.

B1: TEV protease; numbered along this chain (parent)
chain: MGESLFKGPRDYNPISSSICHLTNESDGHTTSLYGIGFGPFIITNKHLFRRNNGTLVVQSLHGVFKVKDTTTLQQHLVDGRDMIIIRMPKDFPPFPQKLKFREPQREERICLVTTNFQTKSMSSMVSDTSCTFPSGDGIFWKHWIQTKDGQCGSPLVSTRDGFIVGIHSASNFTNTNNYFTSVPKNFMELLTNQEAQQWVSGWRLNADSVLWGGHKVFMVKPEEPFQPVKEATQL

Variants of: B1
Assay: raw area under fraction-flipped curve 0-4 h after induction (AUC4h, not background-subtracted), DNA-recorder readout of cleavage of the substrate (dimensionless); higher = more cleavage of the substrate by the protease variant
Details: temperature: 34 °C; time window: 0-4 h after rhamnose induction
Protocol: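 In vivo DNA recorder in E. coli TOP10(DE3) ΔrhaA at 34 °C. Each TEVp single-site mutant (parent TEVp 0) is paired with a single-site variant of the 7-mer TEVs (canonical ENLYFQ|S). The substrate sits between flexible linkers in a Bxb1-sfGFP-TEVs-SsrA fusion, so cleavage stabilises Bxb1 and speeds flipping of a recombination array, read by NGS. The value is the raw area under the fraction-flipped curve over 0-4 h after rhamnose induction (AUC4h), with ≥20 reads per time point. It is not background-subtracted; inactive controls average about 0.047.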
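Further: Bxb1 expression induced with 0.2% (w/v) L-rhamnose at OD600 near 0.5, cultures sampled hourly, flipped fraction per protease–substrate barcode pair counted by paired-end Illumina sequencing.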

Variant	area with substrate ENLAFQS	area with substrate ENLCFQS	area with substrate ENLDFQS	area with substrate ENLEFQS	area with substrate ENLFFQS	area with substrate ENLGFQS	area with substrate ENLHFQS	area with substrate ENLIFQS	area with substrate ENLKFQS	area with substrate ENLLFQS	area with substrate ENLMFQS	area with substrate ENLNFQS	area with substrate ENLPFQS	area with substrate ENLQFQS	area with substrate ENLVFQS	area with substrate ENLSFQS	area with substrate ENLTFQS	area with substrate ENLWFQS	area with substrate ENLRFQS
MGESLFKGPRDYNPISSSICHLTNESDGHTTSLYGIGFGPFIITNKHLFRRNNGTLVVQSLHGVFKVKDTTTLQQHLVDGRDMIIIRMPKDFPPFPQKLKFREPQREERICLVTTNFQTKSMSSMVSDTSCTFPSGDGIFWKHWIQTKDGQCGSPLVSTRDGFIVGIHSASNFTNTNNYFTSVPKNFMELLTNQEAQQWVSGWRLNADSVLWGGHKVFMHKPEEPFQPVKEATQL [V220H]	0.0655	0.0716	0.066	0.0582	0.0829	0.067	0.068	0.099	0.0793	0.0871	0.0717	0.0565	0.068	0.0887	0.116	–	–	–	–
MGESLFKGPRDYNPISSSICHLTNESDGHTTSLYGIGFGPFIITNKHLFRRNNGTLVVQSLHGVFKVKDTTTLQQHLVDGRDMIIIRMPKDFPPFPQKLKFREPQREERICLVTTNFQTKSMSSMVSDTSCTFPSGDGIFWKHWIQTKDGQCGSPLVSTRDGFIVGIHSASNFTNTNNYFTSVPKNFMELLTNQEAQQWVSGQRLNADSVLWGGHKVFMVKPEEPFQPVKEATQL [W203Q]	0.0719	–	0.0495	0.0551	–	–	–	0.0477	0.0599	–	0.0772	0.065	0.0754	–	–	–	–	–	–
MGESLFKGPRDYNPISSSICHLTNESDGHTTSLYGIGFGPFIITNKHLFRRNNGTLVVQSLHGVFKVKDTTTLQQHLVDGRDMIIIRMPKDFPPFPQKLKFREPQREERICLVTTNFQTKSMSSMVSDTSCTFPSGDGIFWKHWIQTKDGQCGSPLVSTRDGFIVGIHSASNFTNTNNYFTSVPKNFMELLTNQEAQQWVSGHRLNADSVLWGGHKVFMVKPEEPFQPVKEATQL [W203H]	0.0586	–	–	0.053	0.0659	0.0537	–	0.0548	–	–	–	0.0762	0.0623	0.0599	0.0527	0.0622	0.0436	0.0678	–
MGESLFKGPRDYNPISSSICHLTNESDGHTTSLYGIGFGPFIITNKHLFRRNNGTLVVQSLHGVFKVKDTTTLQQHLVDGRDMIIIRMPKDFPPFPQKLKFREPQREERICLVTTNFQTKSMSSMVSDTSCTFPSGDGIFWKHWIQTKDGQCGSPLVSTRDGFIVGIHSASNFTNTNNYFTSVPKNFMELLTNQEAQQWVSGWRLNFDSVLWGGHKVFMVKPEEPFQPVKEATQL [A207F]	0.059	–	0.0675	0.063	0.073	–	0.0681	0.079	0.0729	0.0615	–	–	0.0487	0.0619	–	0.0658	0.0703	0.0642	0.0678
MGESLFKGPRDYNPISSSICHLTNESDGHTTSLYGIGFGPFIITNKHLFRRNNGTLVVQSLHGVFKVKDTTTLQQHLVDGRDMIIIRMPKDFPPFPQKLKFREPQREERICLVTTNFQTKSMSSMVSDTSCTFPSGDGIFWKHWIQTKDGQCGSPLVSTRDGFIVGIHSASNFTNTNNYFTSVPKNFMELLTNQEAQQWVSGWRLNADSVEWGGHKVFMVKPEEPFQPVKEATQL [L211E]	0.0742	0.0768	0.0654	0.0643	0.0978	0.0652	0.0752	0.111	0.095	0.0803	–	0.0642	0.0573	0.0757	0.0917	0.0697	–	0.0825	–
MGESLFKGPRDYNPISSSICHLTNESDGHTTSLYGIGFGPFIITNKHLFRRNNGTLVVQSLHGVFKVKDTTTLQQHLVDGRDMIIIRMPKDFPPFPQKLKFREPQREERICLVTTNFQTKSMSSMVSDTSCTFPSGDGIFWKHWIQTKDGQCGSPLVSTRDGFIVGIHSASNFTNTNNYFTSVPKNFMELLTNQEAQQWVSGWRLNADSVGWGGHKVFMVKPEEPFQPVKEATQL [L211G]	0.0521	0.0363	0.0651	0.0458	–	–	0.0604	–	0.0667	0.0686	–	–	–	–	–	–	0.0896	0.0641	–
MGESLFKGPRDYNPISSSICHLTNESDGHTTSLYGIGFGPFIITNKHLFRRNNGTLVVQSLHGVFKVKDTTTLQQHLVDGRDMIIIRMPKDFPPFPQKLKFREPQREERICLVTTNFQTKSMSSMVSDTSCTFPSGDGIFWKHWIQTKDGQCGSPLVSTRDGFIVGIHSASNFTNTNNYFTSVPKNFMELLTNQEAQQWVSGWRLNADSVLWGGHYVFMVKPEEPFQPVKEATQL [K216Y]	0.0589	0.0553	0.0535	0.0685	0.0654	0.0662	0.0737	–	0.0679	0.0526	0.068	0.0653	0.0572	0.0578	0.114	–	–	–	–
MGESLFKGPRDYNPISSSICHLTNESDGHTTSLYGIGFGPFIITNKHLFRRNNGTLVVQSLHGVFKVKDTTTLQQHLVDGRDMIIIRMPKDFPPFPQKLKFREPQREERICLVTTNFQTKSMSSMVSDTSCTFPSGDGIFWKHWIQTKDGQCGSPLVSTRDGFIVGIHSASNFTNTNNYFTSVPKNFMELLTNQEAQQWVSGWYLNADSVLWGGHKVFMVKPEEPFQPVKEATQL [R204Y]	0.0517	–	0.061	–	0.114	–	0.0793	0.0787	0.0805	0.0654	–	0.0672	–	0.0593	–	0.063	–	0.0932	0.0888
MGESLFKGPRDYNPISSSICHLTNESDGHTTSLYGIGFGPFIITNKHLFRRNNGTLVVQSLHGVFKVKDTTTLQQHLVDGRDMIIIRMPKDFPPFPQKLKFREPQREERICLVTTNFQTKSMSSMVSDTSCTFPSGDGIFWKHWIQTKDGQCGSPLVSTRDGFIVGIHSASNFTNTNNYFTSVPKNFMELLTNQEAQQWVSGWRLNADSVLWGGHKMFMVKPEEPFQPVKEATQL [V217M]	0.0688	0.0556	0.0596	–	0.0824	0.0627	0.058	–	0.0724	0.0544	–	0.0573	–	–	–	0.0551	–	–	0.072
